Assay results from the supplement of paper PMC4166925.
± gives the standard deviation of the averaged measurements. Over roughly 33,000 sequences, “E-score (dimensionless, -0.5 to 0.5)” has its median near -0.046; the highest 2% begin near 0.36. This is one part of the list.

These sequences were tested on T1, SpTbr T-box DNA-binding domain (GST fusion) (assay: PBM E-score of 8-mer (E-score (dimensionless, -0.5 to 0.5)); Tbr is Tbrain of the sea star Patiria miniata (Pm) or the sea urchin Strongylocentrotus purpuratus (Sp); higher = stronger binding preference; most listed sequences are background and not binding sites). Conditions: the construct has about 5 more residues each side.
T1 sequence: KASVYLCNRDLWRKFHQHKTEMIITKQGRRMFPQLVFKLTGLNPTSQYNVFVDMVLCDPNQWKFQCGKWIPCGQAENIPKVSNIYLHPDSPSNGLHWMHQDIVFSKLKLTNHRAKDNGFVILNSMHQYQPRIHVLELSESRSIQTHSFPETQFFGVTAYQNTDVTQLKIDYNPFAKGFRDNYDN
In short: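 Primer extension turned Universal Agilent oligonucleotide arrays double-stranded. They were incubated with 200 nM protein in PBS (pH 7.5); the protein was a GST-fused Tbr T-box DNA-binding domain expressed in BL21 E. coli at 20 °C and purified on glutathione. Every ungapped 8-mer was scored from the scanned, quantified probe intensities, and the Universal PBM Analysis Suite gave each an enrichment E-score averaged over duplicate arrays.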

Row | Sequence | PBM E-score of 8-mer
1 | GAGTCCCC | -0.196 ± 0.022
2 | ATCCAATC | -0.07751 ± 0.00066
3 | ACTTAGAA | -0.0461 ± 0.016
4 | TACGCTGA | -0.147 ± 0.16
5 | AGAAATAA | -0.0669 ± 0.051
6 | AATGGTGA | 0.102 ± 0.017
7 | GCCATAGA | -0.0736 ± 0.036
8 | CGGCGAAA | -0.2 ± 0.037
9 | AATCTTAA | -0.0549 ± 0.021
10 | CGGGCTGA | -0.144 ± 0.0076
11 | AGACTTAA | -0.102 ± 0.14
12 | CGCCTGTA | 0.133 ± 0.039
13 | ATCCGGAG | -0.172 ± 0.015
14 | AAACAATG | 0.128 ± 0.072
15 | AATAAATG | -0.17 ± 0.029
16 | GTGGGCTA | -0.101 ± 0.05
17 | AGAAGTCG | 0.0783 ± 0.05
18 | CATGTCTA | 0.01 ± 0.06
19 | ACATGCAT | -0.0915 ± 0.029
20 | CCCACCGG | -0.0702 ± 0.011
21 | GTGGATGA | -0.139 ± 0.013
22 | GAACCTGC | -0.126 ± 0.13

Row | Sequence | PBM E-score of 8-mer
23 | AAGCCGTC | 0.0174 ± 0.019
24 | ACTGTCAT | 0.196 ± 0.032
25 | AGATTTAC | -0.0921 ± 0.066
26 | AAACAGGC | -0.0842 ± 0.026
27 | GGAGAGAA | 0.104 ± 0.023
28 | AAGAACAA | -0.214 ± 0.045
29 | ATGGTACC | -0.185 ± 0.049
30 | CTTCGATC | -0.0691 ± 0.011
31 | TGCACACA | 0.207 ± 0.048
32 | CACAACGG | 0.193 ± 0.026
33 | CATGGCCG | -0.188 ± 0.0012
34 | ATGGAAGG | -0.128 ± 0.014
35 | GATCCGTA | -0.0313 ± 0.14
36 | CCTTGAGC | -0.00589 ± 0.043
37 | CAAGAATA | -0.238 ± 0.077
38 | ATCTACGC | 0.0411 ± 0.049
39 | TGGTAGAA | 0.0235 ± 0.068
40 | TAAAAGAA | 0.00102 ± 0.069
41 | CCCTACCG | -0.178 ± 0.038
42 | CATACTGC | -0.0772 ± 0.055
43 | CAGGCGGG | 0.038 ± 0.026
44 | ACAGTCAT | 0.0191 ± 0.069

Row | Sequence | PBM E-score of 8-mer
45 | AACAGTCA | 0.12612 ± 2.1e-05
46 | ACCGCTCC | -0.236 ± 0.029
47 | AGTGGCAC | 0.296 ± 0.049
48 | CGGTAACC | -0.124 ± 0.02
49 | GTTCAAAC | -0.161 ± 0.083
50 | ATGAAGAG | -0.199 ± 0.02
51 | ATGACTCA | -0.0209 ± 0.0025
52 | CTTCGAAA | -0.106 ± 0.022
53 | AAGTGAGG | 0.2725 ± 0.0021
54 | CCTGGATC | -0.08879 ± 0.00069
55 | CTGCGCAG | 0.045 ± 0.1
56 | ATCTTCTC | 0.0149 ± 0.033
57 | CTCACGCA | 0.375 ± 0.022
58 | CCATGCCC | -0.106 ± 0.013
59 | ACCCGCAA | -0.0153 ± 0.03
60 | ACTTGTTA | 0.347 ± 0.035
61 | CGAACCTA | -0.188 ± 0.054
62 | ATTATAAC | 0.0847 ± 0.081
63 | CTGGGCCA | -0.18 ± 0.071
64 | ATGCCAAC | 0.124 ± 0.0029
65 | CAACGATA | -0.0332 ± 0.025
66 | AAATCTAG | -0.15 ± 0.11

Row | Sequence | PBM E-score of 8-mer
67 | GCGACTGA | -0.00539 ± 0.033
68 | GTGTTAGA | 0.384 ± 0.0066
69 | AGGAGTCG | 0.0301 ± 0.00098
70 | CAGCACAG | -0.132 ± 0.045
71 | AGATCCGC | -0.00131 ± 0.041
72 | GCTGGCAA | 0.104 ± 0.038
73 | ATTAGTGC | 0.063 ± 0.056
74 | TCAGGCGA | 0.126 ± 0.024
75 | CACAGCGG | 0.133 ± 0.013
76 | AATAGGGA | -0.012 ± 0.089
77 | GAACAATA | -0.0637 ± 0.052
78 | ATTCCGTG | -0.1282 ± 0.00087
79 | ACTATCTA | 0.0219 ± 0.065
80 | CAGAAGAG | -0.205 ± 0.0083
81 | CCGTCGCG | 0.109 ± 0.0088
82 | AAATTTGT | 0.169 ± 0.019
83 | AGGAAGAT | -0.2357 ± 0.0023
84 | GAGAAGAC | -0.0777 ± 0.061
85 | GGTGTTTA | 0.386 ± 0.015
86 | CCGAGAGG | 0.0297 ± 0.035
